Hit rate of the full screen: of about 410,000 compounds, about 850 (0.21%) were called active. The shares of active, inactive and inconclusive entries below differ from those in the screen. Calls follow the shape of the dose curve; as a rule, active = well fitted inhibition curve with a large enough effect; inconclusive = small, poorly fitted or top-dose-only effect, or another doubt; inactive = no such curve, though single readings can be large or run the other way. Potencies of inconclusive entries are left out as doubtful fits.
Each compound was assayed against Glutaminase kidney isoform, mitochondrial (Homo sapiens) (UniProt O94925) (assay: qHTS for Inhibitors of Glutaminase (GLS)). Details: GLS enzymatic activity, qHTS titration; series mostly up to 45.5 µM; activity change, negative = inhibition: at the top concentration.
Chain of UniProt O94925 (O94925 whole entry, looked up, canonical isoform): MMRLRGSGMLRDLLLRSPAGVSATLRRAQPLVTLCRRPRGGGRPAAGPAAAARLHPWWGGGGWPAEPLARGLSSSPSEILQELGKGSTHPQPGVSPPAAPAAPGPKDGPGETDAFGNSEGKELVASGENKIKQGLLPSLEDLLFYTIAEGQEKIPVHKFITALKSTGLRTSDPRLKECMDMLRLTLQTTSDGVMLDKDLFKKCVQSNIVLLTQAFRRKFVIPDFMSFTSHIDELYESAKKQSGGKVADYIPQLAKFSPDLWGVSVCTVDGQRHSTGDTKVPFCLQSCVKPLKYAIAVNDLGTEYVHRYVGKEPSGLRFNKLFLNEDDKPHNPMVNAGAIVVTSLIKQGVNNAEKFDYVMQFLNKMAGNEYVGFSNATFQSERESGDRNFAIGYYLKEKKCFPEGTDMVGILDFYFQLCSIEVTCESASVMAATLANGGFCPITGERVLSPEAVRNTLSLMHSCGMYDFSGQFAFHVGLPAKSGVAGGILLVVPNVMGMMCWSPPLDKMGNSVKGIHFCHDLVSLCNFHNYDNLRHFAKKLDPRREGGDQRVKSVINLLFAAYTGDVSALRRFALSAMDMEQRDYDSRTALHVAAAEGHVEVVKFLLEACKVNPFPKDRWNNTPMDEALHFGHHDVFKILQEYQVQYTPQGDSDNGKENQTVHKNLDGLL
Summary of the method: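 Enzyme dispensed in phosphate buffer (45 mM, pH 8.2, 0.02% Tween-20), compounds pinned in, then 1 mM L-glutamine solution and the glutamate oxidase–HRP–Amplex Red mix added; fluorescence read immediately and again after 30 min at room temperature.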
For `COc1cc2ccccc2cc1C(=O)NC(=S)Nc1cc(C(=O)O)ccc1C`, the Potency was inconclusive [inhibitor, single point].
`N#CCCN(C(=O)CSc1nc2nc(-c3cccs3)cc(C(F)(F)F)c2c(=O)[nH]1)c1ccccc1` was tested, and the Potency was inconclusive [inhibitor, single point].
In the case of `COc1ccc(NCc2nnc(SCC(=O)c3ccc(OC)cc3)n2C)cc1`, the “activity change, negative = inhibition” value is reported as inactive: 2.34%.
With `COC(=O)/C(=C1/Oc2cc3c(cc2S1)OCO3)C(F)(F)F` the Potency was inconclusive [inhibitor, single point].
In the case of `Cc1cccc(C(=O)NC(=S)N2CCN(C)CC2)c1`, the “activity change, negative = inhibition” value is reported as inactive: 13%.
With `COC1=CC(=NCl)C=CC1=NCl` the Potency was inconclusive [inhibitor, partial curve].
With `O=C(N/N=C(\Cc1ncc[nH]1)c1ccccc1)c1cccnc1` the Potency was inconclusive [inhibitor, partial curve, poor fit].
For `NNc1nc(-c2ccccc2)c2ccccc2n1`, the Potency was inconclusive [inhibitor, single point].
With `Cc1ccc(CNc2nc3ccccc3s2)s1` the Potency was inconclusive [inhibitor, single point].
With `NC(=S)NNC(=S)Nc1ccccc1` the Potency was inconclusive [inhibitor, partial curve].
For `C=CCOc1ccc(/C(O)=C2/C(=O)C(=O)N(CCCN3CCOCC3)C2c2ccccc2)cc1` (centres undefined), the Potency was inconclusive [inhibitor, single point].
In the case of `Cc1nc2ccccc2nc1OCC(=O)NCc1ccc2c(c1)OCO2`, the Potency is reported as inconclusive [inhibitor, single point].
With `c1ccc(N2CCN(c3cccc(-c4cc5ccccc5s4)n3)CC2)nc1` the Potency was inconclusive [inhibitor, partial curve, poor fit].
With `Cc1ccc(Oc2nc3c(c(=O)n(Cc4ccccc4F)c(=O)n3C)n2C)cc1` the Potency was inconclusive [inhibitor, partial curve].
With `Cc1ccc(O)c(NC(=O)c2cc(-c3ccccc3)on2)c1` the Potency was inconclusive [inhibitor, partial curve].
With `CCCCOc1ccc(CSCCN=C(N)N)cc1` the Potency was inconclusive [inhibitor, single point].
With `Nc1nc(Sc2ccc([N+](=O)[O-])c3nonc23)c2[nH]cnc2n1` the Potency was inconclusive [inhibitor, single point].
With `Cc1ccc2c(C)c(C(=O)N3CCN(Cc4ccc5c(c4)OCO5)CC3)oc2c1C` the “activity change, negative = inhibition” value was inactive: 3.71%.
With `Cc1nn(C2CCS(=O)(=O)C2)c(C)c1C=O` (centres undefined) the Potency was inconclusive [inhibitor, single point].
% is scaled to controls: 0 for no effect and ±100 for the full control effect; potency is read from the fitted curve at half-maximal effect; tags tell the direction and shape of the fitted curve.
